From the supplement of paper PMC10126150 come the findings set out here.

The subject of the data set is ATP. Nature of the data set: switch fluorescence ratio, 500 uM ATP over buffer (Cy3 cluster intensity, sum of 5 cycles each) (fold (ratio)); higher = stronger signal-on switching upon ATP binding; sequences stand for … in TCGTCGGCAGCGTCAGATGTGTATAAGAGACAGTTTTTTTTTTTTTTTTTTTTTTTTT…TC. Particulars: aptamer strand: ATP DNA aptamer (quencher-CACCTGGGGGAGTATTGCGGAGGAAGG + anchor), 100 nM annealed; ATP concentration: 500 uM; one replicate. The method in brief: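 Imaging in selection buffer was followed by imaging after 15 min with 500 uM ATP at 22 °C, for Cy3-labelled switching-strand clusters annealed to 100 nM quencher-labelled ATP aptamer on a modified Illumina MiSeq flow-cell. Five of these buffer/ATP cycles ran, separated by NaOH stripping and re-annealing. The fluorescence ratio per cluster is summed target-cycle over summed buffer-cycle Cy3 intensity, averaged per switch-domain sequence; clusters outside 100-1000 RFU were removed.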

Sequences with one replicate were seen in a single cluster, so their values are uncertain.
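Note: ATP exposure 15 min at 22 °C before imaging.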

Take GCATTTTAAG: the switch fluorescence ratio was found to be 1.05.

In the case of TAGTCTGTAC, the switch fluorescence ratio is 1.14.

In the case of GGCTTAGCTG, the switch fluorescence ratio stood at 1.04.

On to AAAATTGGCT, for which the switch fluorescence ratio worked out at 1.08.

Consider GTCGCTCCAC, for which the switch fluorescence ratio was found to be 1.09.

As to TCAAGCCAGC, the switch fluorescence ratio turned out to be 0.982.

Take TTATCAAGCT: the switch fluorescence ratio was 0.968.

As for GGGAACAAAA, the switch fluorescence ratio came out at 0.952.

TTGAAGATCA: the switch fluorescence ratio was 1.02.

Consider TTTAATATAA, for which the switch fluorescence ratio came to 1.02.

Take GTGAGTGGGC: the switch fluorescence ratio turned out to be 0.976.

Consider TCCGAGTGTG, for which the switch fluorescence ratio was determined as 1.06.

In the case of GAGGACGTCG, the switch fluorescence ratio worked out at 1.05.

With AATGGTTAGC, the switch fluorescence ratio came to 1.03.

For the sequence GTAACCACCG, the switch fluorescence ratio turned out to be 1.03.

With AAAGAAAACT, the switch fluorescence ratio amounted to 1.06.

As to CAACTGGGCG, the switch fluorescence ratio amounted to 1.03.

Consider TCCCACTATA, for which the switch fluorescence ratio is 1.1.

Consider GGTCGTATAC, for which the switch fluorescence ratio came out at 1.3.

With GTATTGTGAC, the switch fluorescence ratio is 0.983.

For GGACGCTCCT, the switch fluorescence ratio amounted to 1.08.

TTAGATCGAT: the switch fluorescence ratio turned out to be 0.967.

With CTGAAGTACA, the switch fluorescence ratio came out at 1.35.

As to GCTCAGGGTT, the switch fluorescence ratio was found to be 1.01.

In the case of TCGCTGAACG, the switch fluorescence ratio was determined as 1.02.

With GGCTCTCATT, the switch fluorescence ratio was determined as 0.978.

On to CCGGCAGCTA, for which the switch fluorescence ratio worked out at 6.11.

In the case of CAGATCGCGT, the switch fluorescence ratio was 1.01.

As for TTTGAATCCA, the switch fluorescence ratio was 1.03.

On to ATCCCTGGGA, for which the switch fluorescence ratio is 1.03.

For the sequence AGGATCAGTG, the switch fluorescence ratio was found to be 1.02.

With GGTCAATTTT, the switch fluorescence ratio is 1.

On to CCCTGACAGT, for which the switch fluorescence ratio is 0.995.

As for GCCGCGTAAG, the switch fluorescence ratio was determined as 1.07.

CGAGCCGCGG: the switch fluorescence ratio stood at 0.966.

Consider ATAAATACAC, for which the switch fluorescence ratio amounted to 1.05.

Turning to TGAATTAATC, the switch fluorescence ratio came to 0.972.

For ATGGAGCGGC, the switch fluorescence ratio is 1.02.

For the sequence TCGGAACGCC, the switch fluorescence ratio was found to be 1.19.

Consider AGTGATTTTC, for which the switch fluorescence ratio worked out at 1.01.

For TGTGGTACAA, the switch fluorescence ratio stood at 1.01.

Regarding GTTGGGGGCT, the switch fluorescence ratio was 1.01.

For the sequence ATCCTCATAG, the switch fluorescence ratio is 1.1.

As to GGCGCAGGTC, the switch fluorescence ratio was 1.06.

With TTGGTCGGTT, the switch fluorescence ratio amounted to 0.982.

For TAAGGTGAAT, the switch fluorescence ratio is 1.05.

On to TCCCGGCATC, for which the switch fluorescence ratio came to 1.99.

Consider ATTTTCTTAT, for which the switch fluorescence ratio worked out at 1.04.

With CAGACCTGTA, the switch fluorescence ratio was 1.08.

With TCGGATGTAG, the switch fluorescence ratio was 1.03.

For TACATCCGGA, the switch fluorescence ratio is 1.03.

GCTTAGTCAC: the switch fluorescence ratio is 1.02.

As to TCATTGTATG, the switch fluorescence ratio turned out to be 1.02.

On to CATTGAGAGA, for which the switch fluorescence ratio turned out to be 1.01.

For CAAAAAAACG, the switch fluorescence ratio turned out to be 1.02.

For the sequence GTAAAGTTAA, the switch fluorescence ratio turned out to be 0.938.

On to GTTTAGTAGA, for which the switch fluorescence ratio was found to be 1.05.

Regarding CAGAATTAAA, the switch fluorescence ratio was found to be 1.01.

Consider TTGGTTGATT, for which the switch fluorescence ratio worked out at 0.99.

As for GCCAATCCTT, the switch fluorescence ratio was found to be 0.991.

As for TAATGGTTT, the switch fluorescence ratio stood at 1.16.

For GCAATAGAAC, the switch fluorescence ratio was 2.07.

Consider CACGGAGCTT, for which the switch fluorescence ratio was 1.42.

Consider TACGGAAAAG, for which the switch fluorescence ratio amounted to 1.01.

For the sequence TCGTACGCGG, the switch fluorescence ratio came to 0.968.

As to CTATGGACTT, the switch fluorescence ratio came out at 1.06.
